Patent US20050282843A1, “Therapeutic applications of 2-substituted 4-heteroarylpyrimidines” (priority 2002, published 2005)

Key:
[1] = target: T1, CDK2/cyclin E (Homo sapiens, UniProt P24941); assay: CDK/cyclin kinase assay, CDK2/cyclin E; format: biochemical; conditions: read-out: Kinase inhibition IC50 CDK2/E
T1 construct: His6; made in house; host or cells: Sf9 insect cells (baculovirus)

[2] = target: CDK4/cyclin D1 (Homo sapiens, UniProt P11802); assay: CDK/cyclin kinase assay, CDK4/cyclin D1
[3] = target: GSK-3β (Oryctolagus cuniculus, UniProt G1T8E2); assay: GSK-3β kinase assay (phosphorylation of CREB phosphopeptide); format: biochemical, rabbit; conditions: read-out: Kinase inhibition IC50 GSK3β
Method: (§1) GSK-3 was obtained from New England Biolabs (UK) Ltd., Hitchin, Herts. The recombinant enzyme was isolated from a strain of E. coli that carries a clone expressing GSK-3β derived from a rabbit skeletal muscle cDNA library [Wang, Q. M.; Fiol, C. […] The samples were transferred to 96-well p81 filter plates (Whatman Polyfiltronics, Kent, UK), and the plates were washed 4 times with 200 μL/well of 75 mM aq orthophosphoric acid.

[4] = tested on: GSK-3β; assay: as above; format: biochemical, rabbit; conditions: ratio of IC50 values
Method: as §1

[5] = target: CDK2/cyclin A (Homo sapiens, UniProt P24941); assay: CDK/cyclin kinase assay, CDK2/cyclin A
[6] = target: CDK1/cyclin B1 (Homo sapiens, UniProt P06493); assay: CDK/cyclin kinase assay, CDK1/cyclin B1
[7] = tested on: cellular glycogen synthase activity in HEK293 cells; assay: Glycogen synthase (GS) assay in HEK293 cells; format: cell-based, human; conditions: In HEK293 cells at [compound] = 5 μM; over control samples
Method: Cells on 10 cm dishes (Human Embryonic Kidney (HEK) 293 cells, L6 rat myocytes, or 3T3 mouse adipocytes) were treated with different concentrations of GSK3-inhibitors or DMSO vehicle for 90 min. Incubation medium was removed and cells were washed with ice-cold phosphate-buffered saline (PBS) prior to lysis on ice in 50 mM HEPES, pH 7.5, 10 mM EDTA, 100 mM NaF, 5 mM DTT, protease inhibitor cocktail (Sigma). After a freeze/thaw cycle the samples are sonicated for 10 sec and centrifuged at 15,000 g for 10 min at 4° C. Lysate supernatants were snap-frozen on liquid nitrogen and stored at −80° C. Lysates were assayed for glycogen synthase activity in buffer (50 mM Tris-HCl, pH 7.8, 20 mM EDTA, 25 mM NaF, 5 mM DTT, 1% glycogen, 0.3 mM UDP-glucose and 0.06 μCi of [^14C]-UDP-glucose in the presence of 0.1 or 10 mM glucose-6-phosphate. The reaction was carried out for 30 min at 30° C. 70 μL of the reaction mixture (total volume 90 μL) were transferred to a GFC 96-well filter plate (bottom sealed with foil), containing 140 μL 96% ethanol. The GFC plate was incubated for 1 h on ice and than washed with 66% ethanol. To each well 100 μL scintillant liquid was added and the radioactivity of the samples was measured using a scintillation counter (Topcount, HP). Data are expressed as -fold increase in glycogen synthase activity ratios over those of control samples.

CDK4/cyclin D1, sequence (P11802 whole entry): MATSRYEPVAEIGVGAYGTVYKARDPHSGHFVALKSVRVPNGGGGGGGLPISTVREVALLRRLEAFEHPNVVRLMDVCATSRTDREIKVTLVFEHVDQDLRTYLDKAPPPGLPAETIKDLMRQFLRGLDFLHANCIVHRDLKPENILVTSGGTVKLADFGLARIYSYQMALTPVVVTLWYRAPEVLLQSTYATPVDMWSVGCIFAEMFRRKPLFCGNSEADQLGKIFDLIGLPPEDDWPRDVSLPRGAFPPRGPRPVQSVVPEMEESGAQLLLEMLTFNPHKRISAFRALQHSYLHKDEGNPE
CDK4/cyclin D1, sequence (P24385 whole entry partner): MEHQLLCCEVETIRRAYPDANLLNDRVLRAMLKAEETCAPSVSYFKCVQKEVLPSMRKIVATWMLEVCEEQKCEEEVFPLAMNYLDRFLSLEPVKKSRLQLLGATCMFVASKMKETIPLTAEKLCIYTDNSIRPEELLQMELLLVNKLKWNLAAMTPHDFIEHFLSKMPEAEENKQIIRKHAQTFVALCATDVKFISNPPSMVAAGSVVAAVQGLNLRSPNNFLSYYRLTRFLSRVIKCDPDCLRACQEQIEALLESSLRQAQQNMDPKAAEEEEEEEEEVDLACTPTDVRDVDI
GSK-3β, sequence (G1T8E2 1-432): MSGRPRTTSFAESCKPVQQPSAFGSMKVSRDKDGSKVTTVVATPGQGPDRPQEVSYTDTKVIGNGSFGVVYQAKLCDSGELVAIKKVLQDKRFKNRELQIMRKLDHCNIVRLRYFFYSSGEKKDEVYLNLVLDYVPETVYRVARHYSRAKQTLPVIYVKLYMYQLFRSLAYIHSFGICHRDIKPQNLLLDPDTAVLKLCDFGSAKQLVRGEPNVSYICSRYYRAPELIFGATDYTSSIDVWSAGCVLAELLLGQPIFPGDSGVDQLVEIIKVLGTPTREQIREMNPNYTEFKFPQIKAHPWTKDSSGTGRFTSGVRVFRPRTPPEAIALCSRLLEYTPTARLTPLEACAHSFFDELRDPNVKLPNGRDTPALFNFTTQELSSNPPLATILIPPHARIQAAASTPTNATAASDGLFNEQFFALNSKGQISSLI
CDK1/cyclin B1, sequence (P06493 whole entry): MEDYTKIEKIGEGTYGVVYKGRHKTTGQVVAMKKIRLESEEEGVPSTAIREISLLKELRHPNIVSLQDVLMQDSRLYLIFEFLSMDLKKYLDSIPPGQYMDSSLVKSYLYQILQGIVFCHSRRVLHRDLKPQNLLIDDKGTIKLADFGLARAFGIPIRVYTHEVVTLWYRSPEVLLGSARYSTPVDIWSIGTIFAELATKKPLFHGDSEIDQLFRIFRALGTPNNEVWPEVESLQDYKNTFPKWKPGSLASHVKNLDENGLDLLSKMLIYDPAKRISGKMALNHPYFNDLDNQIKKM
CDK1/cyclin B1, sequence (P14635 whole entry partner): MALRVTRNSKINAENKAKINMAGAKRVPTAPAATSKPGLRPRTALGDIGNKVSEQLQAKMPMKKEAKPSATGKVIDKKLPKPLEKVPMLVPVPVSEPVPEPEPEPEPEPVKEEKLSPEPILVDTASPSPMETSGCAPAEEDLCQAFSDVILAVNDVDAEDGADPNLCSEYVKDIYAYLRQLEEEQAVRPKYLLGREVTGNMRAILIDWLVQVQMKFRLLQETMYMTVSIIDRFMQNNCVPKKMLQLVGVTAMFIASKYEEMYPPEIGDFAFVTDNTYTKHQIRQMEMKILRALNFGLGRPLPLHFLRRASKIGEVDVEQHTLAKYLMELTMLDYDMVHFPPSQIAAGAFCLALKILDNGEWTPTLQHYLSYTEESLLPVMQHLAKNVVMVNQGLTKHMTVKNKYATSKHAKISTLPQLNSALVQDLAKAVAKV

Row | IC50 [1] [nM] | IC50 [2] [nM] | IC50 [3] [nM] | Selectivity, IC50 (CDK2/E)/IC50 (GSK3β) [4] | IC50 [5] [nM] | IC50 [6] [nM] | -Fold induction of GS activity [7] | SMILES
1 | 120 | 1120 | 20 | 6.7 |  |  |  | Cc1c(-c2ccnc(Nc3ccc(F)cc3)n2)sc(=O)n1C [Compound 33, 5-[2-(4-Fluoro-phenylamino)-pyrimidin-4-yl]-3,4-dimethyl-3H-thiazol-2-one]
2 |  |  |  | 10 |  |  |  | Cc1c(-c2ccnc(Nc3ccc(Cl)cc3)n2)sc(=O)n1C [Compound 23, 5-[2-(4-Chloro-phenylamino)-pyrimidin-4-yl]-3,4-dimethyl-3H-thiazol-2-one]
3 |  |  | 190 |  |  |  |  | Cc1[nH]c(C#N)c(C)c1-c1ccnc(Nc2ccc(O)cc2)n1 [Compound 3, 4-[2-(4-Hydroxy-phenylamino)-pyrimidin-4-yl]-3,5-dimethyl-1H-pyrrole-2-carbonitrile]
4 | 90 | 1100 | 40 | 2.3 | 90 | 510 |  | Cc1c(-c2ccnc(Nc3cccc(O)c3)n2)sc(=O)n1C [Compound 25, 5-[2-(3-Hydroxy-phenylamino)-pyrimidin-4-yl]-3,4-dimethyl-3H-thiazol-2-one]
5 | 1500 | 950 | 640 | 2.4 | 750 | 2470 |  | Cc1c(-c2ccnc(Nc3ccc(N(C)C)cc3)n2)sc(=O)n1C [Compound 26, 5-[2-(4-Dimethylamino-phenylamino)-pyrimidin-4-yl]-3,4-dimethyl-3H-thiazol-2-one]
6 |  |  | 210 |  |  |  |  | Cc1[nH]c(C#N)c(C)c1-c1ccnc(Nc2cccc([N+](=O)[O-])c2)n1 [Compound 1, 3,5-Dimethyl-4-[2-(3-nitro-phenylamino)-pyrimidin-4-yl]-1H-pyrrole-2-carbonitrile]
7 | 130 |  | 50 | 2.7 |  | 1100 | 3.5 -fold | Cc1cc(Nc2nccc(-c3sc(=O)n(C)c3C)n2)ccc1F [Compound 37, 5-[2-(4-Fluoro-3-methyl-phenylamino)-pyrimidin-4-yl]-3,4-dimethyl-3H-thiazol-2-one]
8 |  |  | 370 | 0.3 |  |  |  | CCOC(=O)c1ccc(Nc2nccc(-c3sc(NC)nc3C)n2)cc1Cl [Compound 29, 2-Chloro-4-[4-(4-methyl-2-methylamino-thiazol-5-yl)-pyrimidin-2-ylamino]-benzoic acid ethyl ester]
9 |  |  | 220 |  |  |  |  | Cc1nc(N)sc1-c1ccnc(Nc2cccc([N+](=O)[O-])c2)n1 [Compound 30, [4-(2-Amino-4-methyl-thiazol-5-yl)-pyrimidin-2-yl]-(3-nitro-phenyl)-amine]
10 | 50 | 600 | 90 | 0.5 |  |  | 1.8 -fold | Cc1c(-c2ccnc(Nc3ccc(O)cc3)n2)sc(=O)n1C [Compound 34, 5-[2-(4-Hydroxy-phenylamino)-pyrimidin-4-yl]-3,4-dimethyl-3H-thiazol-2-one]
11 |  |  | 150 |  |  |  |  | Cc1[nH]c(C#N)c(C)c1-c1ccnc(Nc2ccc(F)cc2)n1 [Compound 2, 4-[2-(4-Fluoro-phenylamino)-pyrimidin-4-yl]-3,5-dimethyl-1H-pyrrole-2-carbonitrile]
12 | 60 | 230 | 0.7 | 86 |  |  | 5.4 -fold | Cc1c(-c2ccnc(Nc3cccc([N+](=O)[O-])c3)n2)sc(=O)n1C [Compound 32, 3,4-Dimethyl-5-[2-(3-nitro-phenylamino)-pyrimidin-4-yl]-3H-thiazol-2-one]
13 | > 50000 |  | 500 | >100 |  |  | 1.8 -fold | Cc1[nH]cc(-c2ccccc2)c1-c1ccnc(Nc2ccc(F)cc2)n1 [Compound 27, (4-Fluoro-phenyl)-[4-(2-methyl-4-phenyl-1H-pyrrole-3-yl)-pyrimidin-2-yl]-amine]
